From PubChem BioAssay AID1468 (National Center for Advancing Translational Sciences (NCATS), 2008)
Where “and” joins values, the source holds several entries; their conditions need not be identical. Equal entries are not always repeated. About 1,100 (0.39%) of roughly 280,000 compounds were called active. This list was built around the results that the source calls inconclusive (neither active nor inactive); the mix of calls is not that of the screen. Calls come from the whole dose curve; as a rule, active = well fitted inhibition curve with a large enough effect; inconclusive = small, poorly fitted or top-dose-only effect, or effect the other way; inactive = flat fitted curve, though single readings scatter. Potencies beside an inconclusive call are fits to weak or partial responses and may not hold up.

Target: Microtubule-associated protein tau (Homo sapiens) (UniProt P10636)
Assay: qHTS for Inhibitors of Tau Fibril Formation, Fluorescence Polarization; note: nearly all actives have a fitted effect of over 55% in size
Conditions: K18 P301L tau heparin fibrillization, Alexa594 FP, 6 h; series mostly up to 57.7 µM
How it was run: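 Human K18 P301L fragment (15 uM unlabeled plus 0.24 uM Alexa 594-labeled) in 100 mM sodium acetate pH 7 with compound, aggregation induced by 20 uM heparin for 6 hr at 37 C. ThT (30 uM) added for 1 hr, then Alexa 594 FP read.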
% is set by controls: 0 for no effect and ±100 for the full control effect; potency is the fitted concentration of half-maximal effect; tags give direction and shape of the fitted curve.

Sequence of UniProt P10636 (P10636 whole entry, looked up): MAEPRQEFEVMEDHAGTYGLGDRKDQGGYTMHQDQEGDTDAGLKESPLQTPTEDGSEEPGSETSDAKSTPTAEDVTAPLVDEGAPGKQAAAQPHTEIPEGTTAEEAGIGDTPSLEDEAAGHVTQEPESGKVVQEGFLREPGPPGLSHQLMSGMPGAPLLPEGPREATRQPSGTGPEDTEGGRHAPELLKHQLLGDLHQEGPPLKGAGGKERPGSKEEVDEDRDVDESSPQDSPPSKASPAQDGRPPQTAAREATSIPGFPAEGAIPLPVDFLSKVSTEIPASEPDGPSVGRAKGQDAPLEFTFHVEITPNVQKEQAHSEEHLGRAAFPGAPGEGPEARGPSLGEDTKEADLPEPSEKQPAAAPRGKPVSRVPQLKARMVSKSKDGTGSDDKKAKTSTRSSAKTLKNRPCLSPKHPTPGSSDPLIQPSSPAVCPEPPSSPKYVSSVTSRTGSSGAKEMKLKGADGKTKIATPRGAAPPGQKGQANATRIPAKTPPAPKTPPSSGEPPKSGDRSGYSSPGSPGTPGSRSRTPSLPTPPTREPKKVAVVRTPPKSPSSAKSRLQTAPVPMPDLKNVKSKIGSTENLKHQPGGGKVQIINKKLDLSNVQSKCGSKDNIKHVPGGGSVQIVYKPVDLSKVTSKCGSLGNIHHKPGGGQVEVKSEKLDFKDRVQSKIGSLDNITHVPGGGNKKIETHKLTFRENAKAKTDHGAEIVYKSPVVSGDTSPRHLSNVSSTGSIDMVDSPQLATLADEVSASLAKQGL

Structure (SMILES) | Potency | activity, negative = inhibition
CCCn1c(=O)sc2cc(NC(=O)c3ccc(OC)c(Br)c3)ccc21 | inconclusive: 7.94 µM [inhibitor, full curve] | –
CSc1nc(-c2ccco2)nn1C(=O)c1ccccc1Cl | inconclusive: 3.16 µM [activator, full curve] | –
Cc1ccccc1NC(=O)CCN1CCCC1 | inconclusive: 44.7 µM [inhibitor, single point] | –
CCN(c1ccccc1)S(=O)(=O)c1cc(NC(=O)CSc2n[nH]c(=O)[nH]c2=O)ccc1Cl | inconclusive: 28.2 µM [inhibitor, partial curve] | –
OC1(c2cccc(C(F)(F)F)c2)CCN(c2ccc(-c3ccccc3)nn2)CC1 | inconclusive: 39.8 µM [inhibitor, single point] | –
CCN1CCN(Cc2ccc(NC(=O)c3cc(NC(=O)c4cc(-c5ccc(OC)cc5)n[nH]4)cc(OC)c3)cc2C(F)(F)F)CC1 | active: 28.2 µM | –
CCOc1ccc(S(=O)(=O)c2c(C(=O)c3ccc(CC)cc3)cnc3ccc(C)cc23)cc1 | inactive | –
Cc1ccc([N+](=O)[O-])c(OCCN2CCC(Cc3ccccc3)CC2)c1 | inactive | –
Cc1ccc(S(=O)(=O)n2nc(-c3ccccc3)nc2NCc2ccc(Cl)cc2)cc1 | inconclusive: 39.8 µM [inhibitor, single point] | –
Cc1sc(NC(=O)CSc2nc(O)cc(=O)[nH]2)nc1-c1ccccc1 | inconclusive: 22.4 µM [inhibitor, single point] | –
O=C(CSc1nccn1-c1ccc(Cl)cc1)Nc1ccc(Cl)c(Cl)c1 | inconclusive: 12.6 µM [inhibitor, partial curve] | –
CCOC(=O)N1CCc2c(sc3c2c(=O)n(CCc2ccccc2)c(=O)n3CC(=O)Nc2ccc(C)cc2)C1 | inconclusive: 11.2 µM [inhibitor, partial curve] | –
CCOCCCNS(=O)(=O)c1ccc2c(c1)OCCO2 | inactive | –
NC(=O)SCC(=O)Nc1ccccc1C(=O)O | inconclusive: 17.8 µM [inhibitor, partial curve] | –
CC(C)CCNC(=O)NC(=O)COc1ncnc2sccc12 | inconclusive: 44.7 µM [inhibitor, single point] | –
Cc1ccc(S(=O)(=O)CNC(=S)c2cccc(Cl)c2)cc1 | inactive | –
O=C(CSc1nc2ccc(Cl)cc2[nH]1)c1ccc2c(c1)OCO2 | inconclusive: 22.4 µM [inhibitor, single point] | –
COc1ccc(-c2ccc(C(=O)O)o2)c([N+](=O)[O-])c1 | inconclusive: 44.7 µM [inhibitor, single point] | –
CC1=C(/C=C/C(C)=C\C=C\C(C)=C\C(=O)O)C(C)(C)CCC1 | inactive and inconclusive: 44.7 µM [inhibitor, single point] | –
O=C(NCCO)c1cc2ccccc2cc1O | inactive | –
COc1ccccc1NC(=O)C1=C(C)Nc2nnnn2C1c1ccc(C(F)(F)F)cc1 (centres undefined) | inactive | –
COc1cccc(CNC(=O)COc2cc(=O)n(C)c3ccccc23)c1 | inactive | –

Structure (SMILES) | Potency | activity, negative = inhibition
Nc1ccc(O)c2c(=O)cc(-c3ccccc3Cl)oc12 | inconclusive: 10 µM [activator, partial curve] | –
Cc1cc(C)cc(-n2c(C)cc(C(=S)N3CCOCC3)c2C)c1 | inactive | –
Cc1ccc(-n2nnnc2CNC(=O)c2cc(C(F)(F)F)cc(C(F)(F)F)c2)cc1C | inactive | –
Cc1ccc(C)c(NC(=S)NCc2ccc3[nH]c4c(c3c2)CCCC4)c1 | inconclusive: 5.62 µM [activator, partial curve] | –
CCOc1cc([N+](=O)[O-])cc(/C=C2/NC(=O)N(Cc3ccccc3F)C2=O)c1O | inactive | –
Clc1ccc(OCc2noc(-c3ccsc3)n2)c(Cl)c1 | inconclusive: 20 µM [inhibitor, partial curve] | –
Cc1cc(Oc2ccccc2)nc(SCC(=O)Nc2ccc(Cl)c(Cl)c2)n1 | inconclusive: 14.1 µM [inhibitor, partial curve] | –
C[C@]12C[C@@](C)(C=C1/C=C/c1ccc(C(F)(F)F)cc1)C(=O)C[C@H]2c1ccc(C(F)(F)F)cc1 | inactive | –
Cc1ccc(N2CCN(S(=O)(=O)c3cccc4ccccc34)CC2)cc1Cl | inactive | –
COCCNC(C(=O)Nc1ccc([N+](=O)[O-])cc1Br)c1ccccc1 (centres undefined) | inconclusive: 17.8 µM [activator, single point] | –
C=CC1=C2C=C(C3CC3)N(CCCOC(C)C)C=C2C(=O)C(C)(OC(=O)c2ccco2)C1=O (centres undefined) | – | inactive: -4.04% [at 11.6 µM]
CC(=O)Cc1nsc(NC(=O)c2cn(-c3ccccc3)nc2-c2ccc(Br)cc2)n1 | inconclusive: 8.91 µM [inhibitor, partial curve] | –
CCSC1=C(C#N)C(=O)n2c1cc1c2CCCC1 | inconclusive: 39.8 µM [inhibitor, single point] | –
CC(=O)c1ccc(NC(=O)c2cc3sccc3n2Cc2ccc(F)cc2)cc1 | inconclusive: 3.16 µM [inhibitor, full curve, poor fit] | –
COc1ccc(NC(=O)CN(c2cc(C)cc(C)c2)S(=O)(=O)c2c(C)noc2C)cc1Cl | inconclusive: 11.2 µM [inhibitor, partial curve] | –
CCOC(=O)c1ccc(N=Nc2c(C)c(C#N)c(O)[nH]c2=O)cc1 | inactive | –
CC1=C(/C=C/C(=C/C=C/C(C)=C/C(=O)O)c2ccc(C)cc2)C(C)(C)CCC1 | inconclusive: 44.7 µM [inhibitor, single point] | –
C/C=C1/NN(CCCN2CCN(c3cccc(Cl)c3)CC2)C(=O)N1CCOc1ccccc1 | inconclusive: 44.7 µM [inhibitor, single point] | –
C/C=C/c1ccc(OCCCCOc2c(OC)cccc2OC)c(OC)c1 | inactive | –
Cc1ccc(CNC(=O)CN2C(=O)COc3ccc(S(=O)(=O)Nc4ccccc4)cc32)cc1 | inactive | –
O=C(NC1=NCCS1)c1cc(-c2cccc(Br)c2)nc2ccccc12 | inconclusive: 28.2 µM [inhibitor, partial curve] | –
Cc1ccc(N=Cc2sc(O)c3ccccc23)c(C)c1 | inconclusive: 20 µM [inhibitor, single point] | –
